# Reference: the supplement of paper PMC8728848
# This is one part of the list.
# B1: Cohesin-mDC-ASGPR (Macaca mulatta) (protein)
# chain: LDITSHHHHHHDDLDAVRIKVDTVNAKPGDTVRIPVRFSGIPSKGIANCDFVYSYDPNVLEIIEIEPGDIIVDPNPDKSFDTAVYPDRKIIVFLFAEDSGTGAYAITKDGVFATIVAKVKEGAPNGLSVIKFVEVGGFANNDLVEQKTQFFDGGVNVGDTTEPATPTTPVTTPTTTDDLDAASSQNSKFQRDLVTLRTDFSNFTSNTVAEIQALTSQGSSVEEMIASLKAEVEVIKQEQQAVHSEMLLRVQRLMQDLNKLTCQVATLKNNASTERTCCPVNWVEHQDSCYWFSRSGMPWAEAEKHCQLENAHLVVINSREEQNFVQEHLSFAYTWMGLSDREGAWKWVDGTDYETGFQNWKPGQPDDWQGHGLGGGEDCAHFHPDGRWNDDVCQRPYYWVCEAGLTQASQESH
# Legend:
# Assay in all cases: glycan array binding signal (z-score within array); higher = stronger binding
# Settings in all cases: glycan notation: IUPAC condensed, linker removed
# [1] = target: Neu5Ac(a2-6)GlcNAc(b1-4)GlcNAc(b1-4)GlcNAc
# Summary of the method: (§1)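 Columns mapping to the same glycan were averaged after glycan names were converted to IUPAC-condensed notation. The data come from 3228 arrays in the Consortium for Functional Glycomics database, limited to those with an available protein sequence. Binding is reported as a within-array Z-score averaged across arrays of one protein sequence and across linkers.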
# Neu5Ac(a2-8)Neu5Ac = target: Neu5Ac(a2-8)Neu5Ac
# Summary of the method: as §1
# [2] = target: Neu5Ac(a2-8)Neu5Ac(a2-3)Gal(b1-3)GalNAc(b1-4)[Neu5Ac(a2-3)]Gal(b1-4)Glc
# Summary of the method: as §1
# [3] = target: Neu5Ac(a2-8)Neu5Ac(a2-3)Gal(b1-3)GalNAc(b1-4)[Neu5Ac(a2-8)Neu5Ac(a2-3)]Gal(b1-4)Glc
# Summary of the method: as §1
# [4] = target: Neu5Ac(a2-8)Neu5Ac(a2-3)Gal(b1-4)Glc
# Summary of the method: as §1
# [5] = target: Neu5Ac(a2-8)Neu5Ac(a2-3)Gal(b1-4)GlcNAc
# Summary of the method: as §1
# [6] = target: Neu5Ac(a2-8)Neu5Ac(a2-3)[Gal(b1-3)GalNAc(b1-4)]Gal(b1-4)Glc
# Summary of the method: as §1
# [7] = target: Neu5Ac(a2-8)Neu5Ac(a2-3)[GalNAc(b1-4)]Gal(b1-4)Glc
# Summary of the method: as §1
# [8] = target: Neu5Ac(a2-8)Neu5Ac(a2-8)Neu5Ac
# Summary of the method: as §1
# [9] = target: Neu5Ac(a2-8)Neu5Ac(a2-8)Neu5Ac(a2-3)Gal(b1-4)Glc
# Summary of the method: as §1
# [10] = target: Neu5Ac(a2-8)Neu5Ac(a2-8)Neu5Ac(a2-3)[Gal(b1-3)GalNAc(b1-4)]Gal(b1-4)Glc
# Summary of the method: as §1
# [11] = target: Neu5Ac(a2-8)Neu5Ac(a2-8)Neu5Ac(a2-3)[GalNAc(b1-4)]Gal(b1-4)Glc
# Summary of the method: as §1
# [12] = target: Neu5Ac(a2-8)Neu5Ac(a2-8)Neu5Ac(a2-8)Neu5Ac(a2-3)[GalNAc(b1-4)]Gal(b1-4)Glc
# Summary of the method: as §1
# [13] = target: Neu5Ac(a2-8)Neu5Gc(a2-3)Gal(b1-4)GlcNAc
# Summary of the method: as §1
# [14] = target: Neu5Ac(b2-6)Gal(b1-4)GlcNAc
# Summary of the method: as §1
# Neu5Ac(b2-6)GalNAc = target: Neu5Ac(b2-6)GalNAc
# Summary of the method: as §1
# [15] = target: Neu5Ac9Ac(a2-3)Gal(b1-3)GlcNAc
# Summary of the method: as §1
# [16] = target: Neu5Ac9Ac(a2-3)Gal(b1-4)GlcNAc
# Summary of the method: as §1
# [17] = target: Neu5Ac9Ac(a2-6)Gal(b1-4)GlcNAc
# Summary of the method: as §1
# [18] = target: Neu5Gc(a2-3)Gal(b1-3)GlcNAc
# Summary of the method: as §1
# [19] = target: Neu5Gc(a2-3)Gal(b1-3)[Fuc(a1-4)]GlcNAc
# Summary of the method: as §1
# Neu5Gc(a2-3)Gal(b1-4)Glc = target: Neu5Gc(a2-3)Gal(b1-4)Glc
# Summary of the method: as §1
# [20] = target: Neu5Gc(a2-3)Gal(b1-4)GlcNAc
# Summary of the method: as §1
# [21] = target: Neu5Gc(a2-3)Gal(b1-4)GlcNAc(b1-3)Gal(b1-4)GlcNAc(b1-2)Man(a1-3)[Neu5Gc(a2-3)Gal(b1-4)GlcNAc(b1-3)Gal(b1-4)GlcNAc(b1-2)Man(a1-6)]Man(b1-4)GlcNAc(b1-4)GlcNAc
# Summary of the method: as §1
# [22] = target: Neu5Gc(a2-3)Gal(b1-4)[Fuc(a1-3)]GlcNAc
# Summary of the method: as §1
# [23] = target: Neu5Gc(a2-6)Gal(b1-4)GlcNAc
# Summary of the method: as §1
# Neu5Gc(a2-6)GalNAc = target: Neu5Gc(a2-6)GalNAc
# Summary of the method: as §1
# [24] = target: Neu5Gc(a2-8)Neu5Ac(a2-3)Gal(b1-4)GlcNAc
# Summary of the method: as §1
# [25] = target: Neu5Gc(a2-8)Neu5Gc(a2-3)Gal(b1-4)GlcNAc
# Summary of the method: as §1
# [26] = target: Neu5Gc(a2-8)Neu5Gc(a2-3)Gal(b1-4)GlcNAc(b1-3)Gal(b1-4)GlcNAc
# Summary of the method: as §1
# [27] = target: Neu5Gc(a2-8)Neu5Gc(a2-6)Gal(b1-4)GlcNAc
# Summary of the method: as §1
# [28] = target: Neu5Gc(b2-6)Gal(b1-4)GlcNAc
# Summary of the method: as §1
binder,measurement,setting,value
B1,glycan array binding signal (z-score),[1],-0.417
same,glycan array binding signal (z-score),Neu5Ac(a2-8)Neu5Ac,-0.41
same,glycan array binding signal (z-score),[2],-0.43
same,glycan array binding signal (z-score),[3],-0.41
same,glycan array binding signal (z-score),[4],-0.399
same,glycan array binding signal (z-score),[5],-0.409
same,glycan array binding signal (z-score),[6],3.49
same,glycan array binding signal (z-score),[7],2.11
same,glycan array binding signal (z-score),[8],-0.427
same,glycan array binding signal (z-score),[9],-0.425
same,glycan array binding signal (z-score),[10],-0.429
same,glycan array binding signal (z-score),[11],1.92
same,glycan array binding signal (z-score),[12],2.52
same,glycan array binding signal (z-score),[13],-0.403
same,glycan array binding signal (z-score),[14],-0.426
same,glycan array binding signal (z-score),Neu5Ac(b2-6)GalNAc,2.41
same,glycan array binding signal (z-score),[15],-0.348
same,glycan array binding signal (z-score),[16],-0.427
same,glycan array binding signal (z-score),[17],-0.406
same,glycan array binding signal (z-score),[18],-0.4
same,glycan array binding signal (z-score),[19],-0.422
same,glycan array binding signal (z-score),Neu5Gc(a2-3)Gal(b1-4)Glc,-0.407
same,glycan array binding signal (z-score),[20],-0.399
same,glycan array binding signal (z-score),[21],-0.407
same,glycan array binding signal (z-score),[22],2.69
same,glycan array binding signal (z-score),[23],-0.412
same,glycan array binding signal (z-score),Neu5Gc(a2-6)GalNAc,2.49
same,glycan array binding signal (z-score),[24],-0.417
same,glycan array binding signal (z-score),[25],-0.403
same,glycan array binding signal (z-score),[26],-0.401
same,glycan array binding signal (z-score),[27],-0.412
same,glycan array binding signal (z-score),[28],-0.424
